{"source": "PubChem BioAssay AID488969", "about": "(Vanderbilt High Throughput Screening Facility, 2010)", "note": "The full ranking holds about 110,000 compounds; the median of “z-score” is about -0.1, and the highest 2% start at about 2. The list shows a part of the results. Calls of active or inactive are those of the source.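 The calls were made as follows: active = z-score in the third read window above 3 or below -3; inactive = the rest.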", "data": [{"target": "Metabotropic glutamate receptor 8 (Rattus norvegicus) (UniProt P70579)", "sequence (P70579 whole entry, looked up)": "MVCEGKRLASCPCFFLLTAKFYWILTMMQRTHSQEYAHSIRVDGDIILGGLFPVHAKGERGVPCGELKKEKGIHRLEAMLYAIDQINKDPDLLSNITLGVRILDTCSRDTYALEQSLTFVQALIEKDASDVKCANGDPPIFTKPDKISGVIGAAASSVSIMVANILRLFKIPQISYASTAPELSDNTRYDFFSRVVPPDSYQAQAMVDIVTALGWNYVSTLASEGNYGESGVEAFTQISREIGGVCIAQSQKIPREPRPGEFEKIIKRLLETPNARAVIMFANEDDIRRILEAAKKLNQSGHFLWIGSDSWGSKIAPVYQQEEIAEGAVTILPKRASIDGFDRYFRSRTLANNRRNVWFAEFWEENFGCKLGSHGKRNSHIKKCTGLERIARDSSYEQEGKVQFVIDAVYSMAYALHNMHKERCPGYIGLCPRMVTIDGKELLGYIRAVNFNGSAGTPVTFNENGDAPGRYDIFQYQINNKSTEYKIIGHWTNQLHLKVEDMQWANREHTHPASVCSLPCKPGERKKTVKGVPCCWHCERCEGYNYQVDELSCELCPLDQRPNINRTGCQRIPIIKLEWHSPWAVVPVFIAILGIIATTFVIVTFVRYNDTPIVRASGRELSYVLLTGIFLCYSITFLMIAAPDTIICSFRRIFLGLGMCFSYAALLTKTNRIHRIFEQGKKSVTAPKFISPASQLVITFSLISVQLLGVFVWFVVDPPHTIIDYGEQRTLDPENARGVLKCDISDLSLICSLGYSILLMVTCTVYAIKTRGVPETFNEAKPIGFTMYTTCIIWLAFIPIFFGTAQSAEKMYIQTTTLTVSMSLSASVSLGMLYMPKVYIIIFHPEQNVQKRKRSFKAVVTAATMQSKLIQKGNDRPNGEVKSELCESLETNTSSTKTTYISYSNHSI", "test": "rat mGluR8 modulators via GIRK flux, primary screen, cell-based, thallium flux, HTS (AID 488969)", "settings": "HEK293 rat mGluR8, GIRK (G protein-gated inwardly rectifying potassium channel) thallium flux, FluoZin2; at 10 µM; stronger effect = higher value; submaximal glutamate (EC20) added with thallium", "values": [{"smiles": "Cc1cc(C)cc(NCC(=O)Nc2c(C)cccc2C)c1", "z-score": -0.341}, {"smiles": "Cc1nc2cc(NC(=O)NCc3ccc4c(c3)OCO4)ccc2o1", "z-score": -0.547}, {"smiles": "CCn1c(=NC(=O)CSCC(=O)Nc2nccs2)sc2ccccc21", "z-score": -0.268}, {"smiles": "Clc1ccc(Cn2ncc3c(NCc4ccccc4)ncnc32)cc1", "z-score": -0.00966}, {"smiles": "Cc1nc2ccccc2n1CC(=O)N1CC(=O)Nc2ccccc21", "z-score": -0.551}, {"smiles": "COc1ccccc1NC(=O)c1sc(NC(=O)c2ccco2)c(C#N)c1C", "z-score": -0.103}, {"smiles": "Cc1ccc2c(CSc3nc4ccccc4c(=O)n3CCCO)cc(=O)oc2c1C", "z-score": 0.157}, {"smiles": "CCOc1ccc(C(C)=O)cc1CSc1nnc(-c2cccs2)n1CC1CCCO1", "note": "(configuration not stated)", "z-score": 0.216}, {"smiles": "CCc1ccccc1NS(=O)(=O)c1ccc(SC)cc1", "z-score": -0.416}, {"smiles": "CC1CCN(c2ccc(C(=O)NCc3ccc4c(c3)OCO4)cc2[N+](=O)[O-])CC1", "z-score": -0.76}, {"smiles": "C=C1c2cc(CC)ccc2NC(=O)N1c1ccc(C)cc1", "z-score": -0.0751}, {"smiles": "O=c1[nH]nc(CSCc2ccccc2Cl)[nH]1", "z-score": -1.05}, {"smiles": "CCCC(=O)Nc1ccc(-c2ccc(NC(=O)CCC)cc2)cc1", "z-score": 1.49}, {"smiles": "CCOC(=O)N1CCN(C(=O)Nc2ccc(Cl)cc2Cl)CC1", "z-score": -0.0245}, {"smiles": "O=C(c1cccc(-n2cnnn2)c1)N1CC=C(c2ccccc2)CC1", "z-score": 0.39}, {"smiles": "Cc1ccccc1OCCn1cnc2c(N)ncnc21", "z-score": -0.648}, {"smiles": "CN(C)c1ccc(C2C3C(=O)NC(=O)C3ON2c2ccc(Cl)cc2)cc1", "note": "(configuration not stated)", "z-score": 2.58}, {"smiles": "CN1C(=O)N(C)C2(c3ccccc3)NC(=O)NC12c1ccccc1", "note": "(configuration not stated)", "z-score": 0.541}, {"smiles": "C=CCn1c(SCC(N)=O)nnc1-c1ccccc1O", "z-score": -0.0316}, {"smiles": "Cc1ccc(NC(NC(=O)c2cccnc2)C(Cl)(Cl)Cl)cc1", "note": "(configuration not stated)", "z-score": -1.99}, {"smiles": "C=C(C)CN=C1SC(C(=O)Nc2sc3c(c2C(=O)OC)CCC3)C(N)=C1C(N)=O", "note": "(configuration not stated)", "z-score": 0.236}, {"smiles": "O=C(CSc1nnc(COc2ccc(Cl)cc2)o1)OC1CCCCC1", "z-score": 0.412}, {"smiles": "O=C(C1=C(O)/C(=C/c2ccc(O)cc2)CCC1)C(F)(F)F", "z-score": 0.181}, {"smiles": "S=C(NCCN1CCOCC1)Nc1cccc2ccccc12", "z-score": -0.0659}, {"smiles": "O=C(N/N=C/C=C/c1ccccc1)C1CC1c1ccccc1", "note": "(configuration not stated)", "z-score": 0.201}, {"smiles": "COc1ccc(NC(=O)c2ccccc2NC(=O)NC2CCCCC2)cc1", "z-score": -1.06}, {"smiles": "CCc1cc2c(=O)c(-c3ccc4c(c3)OCCO4)coc2cc1OS(C)(=O)=O", "z-score": 1.1}, {"smiles": "CCOC(=O)c1ccc(-c2ccc(CO)o2)cc1", "z-score": -0.45}, {"smiles": "O=C(CCc1ccccc1)NNC(=O)c1ccccc1Br", "z-score": -0.00288}, {"smiles": "COc1cccc(/C=C/C(=O)OCC(=O)Nc2cc(C(F)(F)F)ccc2Cl)c1", "z-score": -0.177}, {"smiles": "COCCn1c(SCC(=O)N2CCCC2)nnc1-c1ccoc1C", "z-score": 0.0693}, {"smiles": "CCCCSc1ccc2nc(-c3ccc(C#N)cc3)cn2c1", "z-score": -0.0636}, {"smiles": "CCCOc1ccc(/C=N/NC(=O)C(=O)Nc2ccccn2)cc1", "z-score": "active: 3.92"}, {"smiles": "N#Cc1nc(-c2ccc(OCc3ccc(Cl)cc3)cc2)oc1NCCCn1ccnc1", "z-score": 0.281}, {"smiles": "Cc1cc(C)nc(SCc2ccc(C(=O)NNC(=O)Nc3cccc(Cl)c3)cc2)n1", "z-score": 0.418}, {"smiles": "CCOC(=O)C1CCCc2c1[nH]c1c(C(N)=O)cccc21", "note": "(configuration not stated)", "z-score": -0.185}, {"smiles": "Cc1ccc(N(C(=O)C(F)(F)F)C(C(=O)NC2CCCCC2)c2cccs2)cc1", "note": "(configuration not stated)", "z-score": -0.0699}, {"smiles": "O=C(Nc1ccccc1-c1nnn(CC(=O)N2CCN(c3ccccc3)CC2)n1)c1cccs1", "z-score": -0.424}, {"smiles": "Nc1c(C(=O)O)sc2nc(-c3ccccc3)c3c(c12)CCCC3", "z-score": 0.595}, {"smiles": "COc1cccc2c1C(=O)c1ccc3ccccc3c1C2=O", "z-score": -0.00661}, {"smiles": "N#CC12C(N)=NC3(OCCO3)C1(C#N)C1=C(CCC1)NC2c1ccccc1", "note": "(configuration not stated)", "z-score": 0.0587}, {"smiles": "COc1cc(NC(=O)CSc2nnc(Cn3nnc4ccccc43)n2C)cc(OC)c1", "z-score": 0.0173}, {"smiles": "COc1ccccc1C(=O)Nc1sc2c(c1C(=O)NCc1ccco1)CCCC2", "z-score": -0.436}, {"smiles": "COC(=O)c1sc2ccccc2c1-n1cccc1C(=O)C(=O)Nc1ccc(OC)cc1", "z-score": -0.157}, {"smiles": "Cc1nc(COC(=O)c2c(C)nn(-c3ccccc3)c2C)cs1", "z-score": -1.35}, {"smiles": "COCCNC(=O)CCSc1nc(-c2ccc(OC)cc2)cc(C(F)(F)F)n1", "z-score": -0.54}, {"smiles": "COc1ccc(-n2sc3c(c2=S)-c2cc(OC)ccc2NC3(C)C)cc1", "z-score": -0.291}, {"smiles": "Cc1cccnc1NC(=S)NC(=O)/C=C/c1ccco1", "z-score": 0.37}, {"smiles": "COC(=O)CSc1nc2cc(C)ccc2cc1C#N", "z-score": -0.507}, {"smiles": "O=C(NCc1nc2ccccc2[nH]1)c1cccc(S(=O)(=O)N2CCOCC2)c1", "z-score": 0.567}, {"smiles": "CC1CCCN(c2cc3c(cc2[N+](=O)[O-])C(=O)N(c2ccccc2)C3=O)C1", "note": "(configuration not stated)", "z-score": 1.45}, {"smiles": "CC(C)OC(=O)C(NC(=O)c1ccccc1)=C1CCCCC1", "z-score": 1.13}, {"smiles": "Cc1nc2ccccn2c1C(=O)NN", "z-score": 2.34}, {"smiles": "Cc1ccc(SCCNC(=O)C(C)C)cc1", "z-score": 0.141}, {"smiles": "CN(C)S(=O)(=O)N1CCN(C(=O)c2ccccc2)CC1", "z-score": -0.0976}, {"smiles": "CN(C)S(=O)(=O)c1ccc(C(=O)N2CCOCC2)cc1", "z-score": -0.081}, {"smiles": "Oc1ccccc1/C=N/n1cnn(Cc2ccccc2Cl)c1=S", "z-score": -0.192}, {"smiles": "O=C(Cn1nc(-c2ccccc2)c2ccccc2c1=O)Nc1ccc2c(c1)nc1n2CCOC1", "z-score": -0.289}, {"smiles": "CCOC(=O)N1CCN(C(=O)c2cc(OC)cc(OC)c2)CC1", "z-score": 0.429}, {"smiles": "CCOC(=O)C1=C(CNCc2ccc(C)cc2)NC(=O)NC1c1cc(C)ccc1C", "note": "(configuration not stated)", "z-score": 0.326}, {"smiles": "CN1/C(=C\\C(=O)COC(=O)CN2C(=O)C3CC=CCC3C2=O)C(C)(C)c2ccccc21", "note": "(configuration not stated)", "z-score": 0.537}, {"smiles": "COC(=O)c1ccc(Cl)c(NC(=O)Cc2ccccc2[N+](=O)[O-])c1", "z-score": -0.377}, {"smiles": "CC(C)NC(=O)c1onc(CSc2ccccc2F)c1C(=O)O", "z-score": -0.206}, {"smiles": "COc1ccc(/C=C/C(=O)OCC(=O)N2CC(=O)Nc3ccccc32)cc1", "z-score": -0.658}, {"smiles": "O=C(NC12CC3CC(CC(C3)C1)C2)N1CCN(S(=O)(=O)c2ccc(Cl)cc2)CC1", "z-score": -0.746}, {"smiles": "CCCCCC(=O)Nc1ccccc1N1CCOCC1", "z-score": -0.386}, {"smiles": "Fc1ccc2c(c1)C(c1ccc(N3CCOCC3)cc1)=NNC(c1cccs1)=N2", "z-score": -0.0523}, {"smiles": "Cc1cc(SCC(=O)c2cc(C)n(C)c2C)nc2ccccc12", "z-score": -0.0351}, {"smiles": "Cc1cc(C(F)(F)F)n2ncc(-c3ccccc3)c2n1", "z-score": 0.117}, {"smiles": "O=C(Nc1cccc2nsnc12)c1ccc(-c2cccc(Cl)c2)o1", "z-score": -0.205}, {"smiles": "COc1ccc(C(=O)Nc2ccc3c(c2)OCCO3)cc1", "z-score": -0.168}, {"smiles": "Cc1ccc(C(=O)N/N=C\\c2ccc(Br)o2)o1", "z-score": -0.541}]}]}
